Laboratory results reported in PubChem BioAssay (NCATS).
This list was built around the results that the source calls inconclusive (neither active nor inactive); the mix of calls is not that of the screen. Potencies beside an inconclusive call are fits to weak or partial responses and may not hold up. The source made the active and inactive calls. Calls come from the whole dose curve; as a rule, active = well fitted curve in the direction sought with a large enough effect; inconclusive = small, poorly fitted or top-dose-only effect, or another doubt; inactive = no such curve, though single readings can be large; an effect the other way counts as inactive or inconclusive.

Legend:
[1] = target: Rap guanine nucleotide exchange factor 3 (Homo sapiens) (UniProt O95398); experiment: Confirmatory qHTS for antagonist of cAMP-regulated guanine nucleotide exchange factor 3 (EPAC1) (AID 1645880); conditions: EPAC1 Rap1B-BODIPY-GDP exchange, fluorescence; activity, negative = inhibition: at 115 µM (top of the series); note: nearly all actives have a fitted effect of over 55% in size;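 for activity, negative = inhibition: plate controls were DMSO only for no effect and full effect of the ATA control for full effect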
Summary of the method: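 Nucleotide exchange uses 100 nM EPAC1, 250 nM RAP1B-BODIPY-GDP and 50 uM GDP, with compounds in a concentration-titration series. After 5 min at room temperature, fluorescence (480 nm ex/540 nm em) is read every 5 min for 30 min. Data are normalized to control ATA and DMSO.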

[2] = target: Rap guanine nucleotide exchange factor 3 (Homo sapiens) (UniProt O95398); experiment: Counterscreen qHTS for agonist of cAMP-regulated guanine nucleotide exchange factor 3 (EPAC1) (AID 1645889); conditions: EPAC1 Rap1B-BODIPY-GDP exchange, fluorescence; activation: at 154 µM (top of the series) unless noted; note: nearly all actives have a fitted effect of over 40% in size; for activation: % of control where 0% means no effect
Summary of the method: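 Rap1B–BODIPY-GDP (250 nM) with 50 uM GDP; compounds pin-transferred to 9.74 nM–152 uM final (activator) or from 7.32 nM upwards (inhibitor). Fluorescence Ex/Em 480/540 nm read at 5 and 30 min, then after adding cAMP or buffer, at room temperature.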
Potency is the fitted concentration of half-maximal effect; tags give direction and shape of the fitted curve.

Chain of UniProt O95398 (O95398 whole entry, looked up): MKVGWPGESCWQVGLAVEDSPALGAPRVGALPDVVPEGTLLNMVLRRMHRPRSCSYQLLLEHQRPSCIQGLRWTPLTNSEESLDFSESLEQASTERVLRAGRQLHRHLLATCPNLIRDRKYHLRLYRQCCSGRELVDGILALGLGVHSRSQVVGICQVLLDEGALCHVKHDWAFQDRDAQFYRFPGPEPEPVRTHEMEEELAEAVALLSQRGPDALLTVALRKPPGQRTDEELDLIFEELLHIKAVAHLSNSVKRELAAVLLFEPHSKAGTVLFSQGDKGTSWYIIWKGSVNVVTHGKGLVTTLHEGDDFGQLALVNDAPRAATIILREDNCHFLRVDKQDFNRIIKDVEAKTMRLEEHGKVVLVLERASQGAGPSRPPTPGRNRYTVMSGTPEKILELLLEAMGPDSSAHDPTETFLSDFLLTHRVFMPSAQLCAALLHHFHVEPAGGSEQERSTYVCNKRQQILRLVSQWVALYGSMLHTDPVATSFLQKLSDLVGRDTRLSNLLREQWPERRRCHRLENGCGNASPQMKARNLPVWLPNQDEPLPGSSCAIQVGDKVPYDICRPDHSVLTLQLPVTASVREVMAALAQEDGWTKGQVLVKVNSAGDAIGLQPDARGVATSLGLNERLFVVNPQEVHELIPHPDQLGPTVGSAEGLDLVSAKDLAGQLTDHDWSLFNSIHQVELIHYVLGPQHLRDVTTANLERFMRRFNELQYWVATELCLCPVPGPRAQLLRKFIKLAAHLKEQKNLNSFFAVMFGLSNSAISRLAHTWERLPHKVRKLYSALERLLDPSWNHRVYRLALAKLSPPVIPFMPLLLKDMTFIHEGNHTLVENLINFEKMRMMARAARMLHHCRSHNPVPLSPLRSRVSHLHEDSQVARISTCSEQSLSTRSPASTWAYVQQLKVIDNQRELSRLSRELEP

| SMILES | Potency [1] | activation [2] | Potency [2] |
| --- | --- | --- | --- |
| COC(=O)c1ccc2nc(-c3ccc(F)cc3)c(Cc3ccsc3)n2c1 | inactive | inconclusive: 45.9% [activator] [at 30.8 µM] | – |
| COc1ccc(OC)c(Nc2nc3ccccc3nc2-n2nc(C)cc2C)c1 | inactive | inconclusive: 53.5% [activator] | – |
| CN(c1ccccc1)c1ccc(/C=C(/CCC(=O)O)c2nc3ccccc3s2)cc1[N+](=O)[O-] | inconclusive: 19 µM [inhibitor, full curve] | – | inconclusive: 7.94 µM [activator, partial curve] |
| CC1C(=O)N(Cc2cn(Cc3ccco3)nn2)CCS(=O)(=O)N1Cc1ccc(-c2cccnc2)cc1 (stereo not drawn) | inconclusive: 44.7 µM [inhibitor, partial curve, poor fit] | inactive: 21.5% [at 30.8 µM] | – |
